Results: the supplement of paper PMC4604168 (melanoma cell lines)
Some of the results follow. Single values are uncertain, as repeats are few or missing.

Assays:
Assay in all cases: cell count relative to DMSO control; melanoma cells; higher = more viable cells
Details in all cases: library dose: standard library concentration; 72 h
SkMel28 = test system: SkMel28
SkMel2 = test system: SkMel2
SkMel30 = test system: SkMel30
SkMel5 = test system: SkMel5
UACC257 = test system: UACC257
UACC62 = test system: UACC62
WM115 = test system: WM115
WM1716 = test system: WM1716
WM1745 = test system: WM1745
WM3526 = test system: WM3526
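Further: cells treated in 1,536-well plates, then fixed and DAPI-stained, with nuclei counted from automated high-throughput microscope images.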

Row | Compound | cell count (SkMel28) [%] | cell count (SkMel2) [%] | cell count (SkMel30) [%] | cell count (SkMel5) [%] | cell count (UACC257) [%] | cell count (UACC62) [%] | cell count (WM115) [%] | cell count (WM1716) [%] | cell count (WM1745) [%] | cell count (WM3526) [%]
1 | NCC(=O)Nc1ccc(-n2nc(C(F)(F)F)cc2-c2ccc3c(ccc4ccccc43)c2)cc1 + Cn1cc(/C=C2\C(=O)Nc3cccnc32)c2ccccc21 [GW441756] (first compound 5 µM, partner dose 2 µM) | 23.1 | 36 | 28.4 | 53.8 | 62.8 | 92.8 | 83.5 | 77.4 | 62.4 | 48.5
2 | CO[C@@H]1[C@H](N(C)C(=O)c2ccccc2)C[C@H]2O[C@]1(C)n1c3ccccc3c3c4c(c5c6ccccc6n2c5c31)C(=O)NC4 [Midostaurin] + Oc1nc(-c2ccc(C(F)(F)F)cc2)nc2c1CSCC2 [XAV939] (first compound 0.4 µM, partner dose 10 µM) | 40.7 | 37.7 | 38 | 44.6 | 67.8 | 74.9 | 37.7 | 33.9 | 24.7 | 63.4
3 | NC(=O)Nc1cc(-c2cccc(F)c2)sc1C(=O)N[C@H]1CCCNC1 + CCN(CC)CCCCNc1ncc2cc(-c3cc(OC)cc(OC)c3)c(NC(=O)NC(C)(C)C)nc2n1 [PD173074] (first compound 0.1 µM, partner dose 0.5 µM) | 36.3 | 71.5 | 65.2 | 63.5 | 93.4 | 71.3 | 73.6 | 57.2 | 43.4 | 30.8
4 | CO[C@@H]1[C@H](N(C)C(=O)c2ccccc2)C[C@H]2O[C@]1(C)n1c3ccccc3c3c4c(c5c6ccccc6n2c5c31)C(=O)NC4 [Midostaurin] + O=C(Nc1cccc(Cl)c1)Nc1ncc(CCNc2ncnc3ccsc23)s1 [SNS314] (first compound 0.4 µM, partner dose 0.004 µM) | 21 | 30.1 | 48.2 | 50.2 | 48.3 | 68.9 | 35.7 | 33.6 | 20.1 | 46
5 | NC(=O)Nc1cc(-c2cccc(F)c2)sc1C(=O)N[C@H]1CCCNC1 + Oc1cc(-c2nc(-c3ccccc3)[nH]c2-c2ccncc2)ccc1Cl [L779450] (first compound 0.1 µM, partner dose 1 µM) | 22.2 | 39.9 | 63.7 | 82.3 | 108 | 65.2 | 39.8 | 53.4 | 57.5 | 42.6
6 | OCCn1cc(-c2cnc3nnn(Cc4ccc5ncccc5c4)c3n2)cn1 + COc1cc2ncnc(Nc3ccc(Oc4ccccc4)cc3)c2cc1OC [SrcI1] (first compound 5 µM, partner dose 10 µM) | 76.8 | 83.5 | 101 | 83 | 82.1 | 79.1 | 76.4 | 86.9 | 67.4 | 63.8
7 | CO[C@@H]1[C@H](N(C)C(=O)c2ccccc2)C[C@H]2O[C@]1(C)n1c3ccccc3c3c4c(c5c6ccccc6n2c5c31)C(=O)NC4 [Midostaurin] + COC(=O)c1sccc1S(=O)(=O)Nc1ccc(Nc2ccccc2)cc1OC [GSK0660] (first compound 0.4 µM, partner dose 5 µM) | 31.8 | 31.5 | 55 | 41.6 | 55.4 | 63.6 | 30.8 | 29.6 | 31.9 | 43.7
8 | CO[C@@H]1[C@H](N(C)C(=O)c2ccccc2)C[C@H]2O[C@]1(C)n1c3ccccc3c3c4c(c5c6ccccc6n2c5c31)C(=O)NC4 [Midostaurin] + C[C@@H]1CCN(C(=O)CC#N)C[C@@H]1N(C)c1ncnc2[nH]ccc12 [CP690550] (first compound 0.4 µM, partner dose 5 µM) | 37.4 | 31.6 | 52.2 | 40.5 | 49.9 | 66.8 | 31.3 | 27.1 | 33.7 | 59.4
9 | C[C@]1(c2nc3c(C(N)=O)cccc3[nH]2)CCCN1 [Veliparib] + COc1ccc2c(c1)CCC1C2CCC2(C)C(NCCCCCCN3C(=O)C=CC3=O)CCC12 [U73122] (first compound 7 µM, partner dose 2 µM) | 79.7 | 88.1 | 72.7 | 63 | 79.2 | 43.3 | 74.4 | 62.2 | 60.2 | 78.3
10 | CN(C)S(=O)(=O)c1ccc2c(c1)/C(=C/c1cc3c([nH]1)CCCC3)C(=O)N2 + COc1cc2c(Oc3ccc4[nH]c(C)cc4c3F)ncnc2cc1OCCCN1CCCC1 [cediranib] (first compound 2 µM, partner dose 2 µM) | 57.3 | 73.5 | 75.9 | 81.8 | 75.3 | 68 | 40.6 | 59.9 | 49 | 68.3
11 | OCCn1cc(-c2cnc3nnn(Cc4ccc5ncccc5c4)c3n2)cn1 + O=C(Nc1ccccc1)c1cc([N+](=O)[O-])ccc1Cl [GW9662] (first compound 5 µM, partner dose 10 µM) | 66.6 | 89.8 | 108 | 84 | 89.8 | 76 | 73.9 | 87.5 | 67.7 | 85.6
